Assay results from patent US20250312473A1, “B7H3 ANTIBODY DRUG CONJUGATES” (BEONE MEDICINES I GMBH, priority 2022, published 2025).

Biological target: T1, ECD of human 4Ig-B7H3 (Homo sapiens, UniProt Q5ZPR3)
T1 construct: ECD of human 4Ig-B7H3 (Sinobiological, Cat: 11188-H08H); purchased Sinobiological 11188-H08H
T1 sequence (Q5ZPR3 29-466 limits assumed): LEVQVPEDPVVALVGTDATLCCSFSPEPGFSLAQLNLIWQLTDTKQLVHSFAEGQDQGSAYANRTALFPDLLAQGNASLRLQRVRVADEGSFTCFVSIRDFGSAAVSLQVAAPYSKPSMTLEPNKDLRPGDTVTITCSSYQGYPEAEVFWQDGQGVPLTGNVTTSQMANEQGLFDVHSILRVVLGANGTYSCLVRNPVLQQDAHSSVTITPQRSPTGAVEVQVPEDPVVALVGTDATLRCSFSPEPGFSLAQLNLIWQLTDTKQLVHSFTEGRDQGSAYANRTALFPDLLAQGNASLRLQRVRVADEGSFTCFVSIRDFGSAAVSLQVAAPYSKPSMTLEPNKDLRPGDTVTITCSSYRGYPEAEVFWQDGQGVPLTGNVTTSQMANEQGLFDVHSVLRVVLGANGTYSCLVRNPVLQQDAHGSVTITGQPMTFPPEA
Test: SPR affinity determination
Type: binding
Conditions: Test 1
Source text: For affinity determination, antibodies were captured by anti-human Fc surface, and used in an affinity assay based on surface plasmon resonance (SPR) technology. The results of SPR-determined binding profiles of humanized antibodies to ECD of human 4Ig-B7H3 (Sinobiological, Cat: 11188-H08H) were summarized in Table 20.

koff: 0.000284 s⁻¹ | kon: 720000 M⁻¹ s⁻¹
B1: Chimeric BGA-3295: "Anti-Human B7H3 mAb BGA-3295", parent antibody with murine variable regions that was humanized (antibody, V domains shown)
VH: QIQVVQSGPELVKPGSLVKISCKASGYTFTNYDINWVKQRPGQGLEWIGWIYPGDGSAYYNEKFKGKATLTADKSSSTAYMQLSSLTSENSAVYFCARWGYGGVPFAYWGQGTLVTVSA
VL: DIVMTQSPSSLAMSVGQKVTMSCKSSQSLLNDINQKNYLAWYQQKPGQSPKLLVYFASTGVSGVPDRFIGSGSGTDFTLTVSSVQAEDLADYFCQQYYSFPWTFGGGTKLEIK
